Hit rate of the full screen: of about 44,000 compounds, about 340 (0.77%) were called active. About 5% were inconclusive and are not listed. Calls follow the shape of the dose curve; as a rule, active = well fitted inhibition curve with a large enough effect; inconclusive = small, poorly fitted or top-dose-only effect; inactive = flat fitted curve, though single readings scatter. The list shows a part of the results.
Assay: Acumen qHTS Assay for Inhibitors of the mTORC1 Signaling Pathway in MEF (Tsc2-/-, p53-/-) Cells: Sytravon;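 also: plate controls were DMSO for no effect and rapamycin for full effect; nearly all actives have a fitted effect of over 50% in size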
Details: phospho-rpS6 immunofluorescence/PI, 24 h; series mostly up to 38.3 µM; activity change, negative = inhibition: at the top concentration
Outline: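 Tsc2-/-, p53-/- mouse embryonic fibroblasts (empty-vector line) exposed to compound 24 hrs at 37 C, fixed, immunostained for phospho-rpS6 and counterstained with propidium iodide. Acumen laser scanning gives % positive cells from Alexa 488/PI ratio, thresholded using 7.5 nM rapamycin; PI count gives viability.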

Activity change, negative = inhibition, inactive:
COc1ccc(C(=O)c2oc3ccccc3c2NC(=O)c2cc(=O)c3ccc(C)cc3o2)cc1Cl 3.35%
COc1ccc(-c2noc(CNC(=O)c3ccccc3Br)n2)cc1 0.711%
CCOc1ccc(-c2cccc(NS(=O)(=O)c3ccc(F)cc3F)c2)nn1 6.93%
COc1cccc(NC(=O)c2cccc3c(=O)c4c([nH]c23)CCCC4)c1 -8.77%
CCCOc1ccc(C2c3c(-c4ccccc4O)n[nH]c3C(=O)N2CCc2ccccc2)cc1OCC (stereo not drawn) 3.81%
CCOc1ccc2ncc3c(-c4ccc(C)cc4)nn(-c4cccc(F)c4)c3c2c1 3.2%
CCOc1ccc(OCC)c(NC(=O)c2cc(S(=O)(=O)N3CCc4ccccc43)cn2C)c1 1.21%
Cc1ccc(S(=O)(=O)NCC(c2ccco2)N2CCOCC2)cc1 (stereo not drawn) 6.33%
COc1ccc(-c2nc3c(c(SCC(=O)N4CCCCC4)n2)Cc2cc(C)ccc2O3)cc1 -13.7%
O=S(=O)(c1cccc(Cl)c1)c1nnn2c1nc(NCc1ccc3c(c1)OCO3)c1sccc12 -2.24%
CCOC(=O)CSc1nc(-c2ccc(OCC)cc2)cc(C(F)(F)F)c1C#N 5.35%
CC(=O)Nc1ccc(/C=C/c2noc(-c3ccccc3O)n2)cc1 -0.23%
CCc1nnc(NC(=O)c2cc(=O)c3cc(C)ccc3o2)s1 0.862%
COc1ccccc1CNC(=O)C(=O)NCC(c1cccs1)S(=O)(=O)c1ccccc1 (stereo not drawn) 0.0771%
CC(=O)c1ccc(N2CCN(S(=O)(=O)c3cc4[nH]c(=O)c(=O)[nH]c4cc3C)CC2)cc1 4.92%
Cc1ccc(C)c(N2CCN(C(=O)Cn3cnc4onc(-c5ccc(F)cc5)c4c3=O)CC2)c1 7.9%
Cc1ccc2oc(=O)c3cc(C(=O)NCCCOC(C)C)sc3c2c1 -6.98%
COc1ccc(-n2c(SCC(=O)NCc3ccc(Cl)cc3)nc3ccsc3c2=O)cc1 -6.28%
Cc1ccc(NC(=O)CCCc2nc(-c3ccco3)no2)cc1Cl 0.381%
COc1ccc(-n2nnnc2C2CCN(S(=O)(=O)c3cccc(C(F)(F)F)c3)CC2)cc1 2.07%
COc1cccc(NC(=O)C(Cc2ccccc2)N2Cc3ccccc3C2=O)c1 (stereo not drawn) 0.396%
COc1ccc(NS(=O)(=O)c2ccc(N3CCCCS3(=O)=O)cc2)cc1Cl -10.1%
COc1ccc(-c2noc(CCC(=O)N(C)c3cc(Cl)ccc3OC)n2)cc1 0.198%
CC(C)CCOc1ccc(C(=O)NCC2OCCc3ccccc32)cc1 (stereo not drawn) -0.659%
COc1cccc(-n2c(=O)c3cc(OC)c(OC)cc3n(CC(=O)Nc3ccc(F)cc3)c2=O)c1 -12.6%
CCS(=O)(=O)N1CCCc2cc(C(=O)Nc3cccc(C(C)=O)c3)ccc21 2.39%
COc1cc(NC(=O)c2cccc(Cl)c2Cl)ccc1NC(=O)c1cc2ccccc2o1 7.68%
CCCn1c2ccc(F)cc2c2nnc(SCCN3CCCCC3)nc21 0.0362%
CCC(=O)N1CCc2cc(Br)cc(S(=O)(=O)CCC(=O)Nc3cccc(Cl)c3)c21 -6.48%
CCCc1cnc2c(c1SCC(=O)Nc1ccccc1OCC)c(=O)n(C)c(=O)n2C -0.507%
Clc1ccc(-c2nnn3c2nc(NC2CCCCC2)c2ccccc23)cc1 -6.72%
CCOc1ccc(Nc2ncnc3c2c(-c2ccccc2)cn3-c2cccc(C)c2)cc1 -22.1%
CCOc1ccc(C(=O)N(Cc2ccc(C(C)C)cc2)Cc2ccco2)cc1 -22.9%
Cc1cc2c(cc1NS(=O)(=O)c1ccc(Br)cc1)n(C)c(=O)c(=O)n2C 1.9%
COc1cccc(Cn2nc(SC)c(S(=O)(=O)c3ccccc3)c2N(C(C)=O)C(C)=O)c1 -0.934%
CCCSCCCNC(=O)c1ccc(C)c(NC(=O)c2nsc3ccccc23)c1 -7.39%
COc1ccc(CC(=O)N2CCc3cc(OC)c(OC)cc3C2COc2ccc(F)cc2)cc1 (stereo not drawn) 3.43%
COc1ccc(OC)c(NC(=O)c2oc(=O)c3ccccc3c2-c2ccccc2)c1 1.48%
COc1cc2c(cc1OC)C(c1cccc(Cl)c1)CC(=O)N2 (stereo not drawn) 0.738%
COc1ccc(N2CCN(S(=O)(=O)c3ccc(F)c(C(=O)Nc4ccccc4Cl)c3)CC2)cc1 2.38%
Cn1nc(-c2ccccc2F)c2cc(C(=O)NCc3ccccc3Cl)sc21 -9.91%
CCOc1ccc(NCc2cccn2-c2nnc(N3CCC(C(=O)NCc4ccccc4Cl)CC3)s2)cc1 -0.841%
CCc1ccc(OCCSc2nc3ccccc3n2CC(=O)N2CCCCC2)cc1 2.37%
O=C(c1ccc(F)cc1)N1CCc2c([nH]c3ccccc23)C1c1ccc(Cl)cc1 (stereo not drawn) -8.22%
COc1ccc(Cl)cc1NC(=O)N1CCN(S(=O)(=O)c2ccc3c(ccn3C)c2)CC1 -1.5%
CC(C)(C)OC(=O)N1CCC(c2c(C(=O)NCc3cccs3)cnn2-c2cccc(F)c2)CC1 -14.6%
COc1ccccc1N1CCN(c2ncnc3c2c(-c2ccccc2)cn3-c2cccc(Cl)c2)CC1 5.28%
Cc1ccc(OCCSc2nc(-c3ccccc3C)nc3cc(=O)[nH]n23)cc1Cl -2.18%
